Reference: PMC4336329 (PLoS ONE, 2015)
Among all 310,000 compounds or so, about 14,000 (4.5%) showed an effect of 50% or more. The effect is printed as a negative number. The list shows a part of the results.

What follows are compounds tested against human ether-à-go-go-related gene (hERG) potassium channel (human, UniProt Q12809) (assay: primary screen, population patch clamp on CHO cells stably expressing hERG).
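Also: peak tail current of the secondary pulse compared with the same well before compound.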

human ether-à-go-go-related gene (hERG) potassium channel, sequence (Q12809 whole entry, looked up): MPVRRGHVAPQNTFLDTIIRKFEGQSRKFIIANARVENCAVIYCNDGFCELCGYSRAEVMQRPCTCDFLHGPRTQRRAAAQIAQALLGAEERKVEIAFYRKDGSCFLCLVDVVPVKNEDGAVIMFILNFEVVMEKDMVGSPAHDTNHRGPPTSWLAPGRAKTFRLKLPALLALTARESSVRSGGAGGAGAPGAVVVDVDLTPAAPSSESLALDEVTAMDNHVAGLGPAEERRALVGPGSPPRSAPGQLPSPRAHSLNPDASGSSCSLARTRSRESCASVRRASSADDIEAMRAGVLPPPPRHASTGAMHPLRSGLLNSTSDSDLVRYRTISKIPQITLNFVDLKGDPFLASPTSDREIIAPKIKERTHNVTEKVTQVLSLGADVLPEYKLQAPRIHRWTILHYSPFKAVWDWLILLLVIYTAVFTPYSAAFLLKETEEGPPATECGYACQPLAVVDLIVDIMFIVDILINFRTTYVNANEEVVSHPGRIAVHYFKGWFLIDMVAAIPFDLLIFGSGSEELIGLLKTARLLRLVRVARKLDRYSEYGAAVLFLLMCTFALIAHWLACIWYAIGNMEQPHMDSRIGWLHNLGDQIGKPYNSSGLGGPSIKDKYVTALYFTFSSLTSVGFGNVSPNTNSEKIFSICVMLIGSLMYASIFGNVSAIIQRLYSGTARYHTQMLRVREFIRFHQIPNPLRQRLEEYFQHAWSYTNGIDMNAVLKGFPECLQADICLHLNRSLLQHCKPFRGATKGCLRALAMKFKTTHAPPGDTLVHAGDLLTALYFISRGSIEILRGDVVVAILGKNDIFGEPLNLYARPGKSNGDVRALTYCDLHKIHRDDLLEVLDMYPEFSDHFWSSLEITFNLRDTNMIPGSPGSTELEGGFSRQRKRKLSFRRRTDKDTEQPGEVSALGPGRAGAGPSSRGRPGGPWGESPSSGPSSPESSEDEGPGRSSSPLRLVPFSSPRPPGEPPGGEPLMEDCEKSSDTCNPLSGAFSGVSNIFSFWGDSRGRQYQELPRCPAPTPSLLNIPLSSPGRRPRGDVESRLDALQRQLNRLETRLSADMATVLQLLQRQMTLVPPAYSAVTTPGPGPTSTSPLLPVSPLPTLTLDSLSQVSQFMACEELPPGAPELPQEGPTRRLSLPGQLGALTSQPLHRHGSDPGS

| SMILES | hERG current change (%, negative = inhibition) at 10uM [%] |
| --- | --- |
| CN(C)c1ccc(C(=O)N2CCN(c3cc(C(F)(F)F)nc4ccccc34)CC2)cc1 | -26.4 |
| CC1(C)CC(=O)c2cnn(-c3nc4ccccc4[nH]3)c2C1 | 2.29 |
| O=C1c2cccnc2C(=O)N1Cc1ccccc1 | 3.86 |
| CCNc1nc(NC(C)C)nc(NS(=O)(=O)c2ccc(C)cc2)n1 | 12.8 |
| C=CC[n+]1c(C)csc1Nc1ccc(C)cc1.[Br-] | 0.033 |
| O=C(COC(=O)c1ccc(S(=O)(=O)N2CCCC2)cc1)Nc1ccc(Cl)cc1 | 4.84 |
| O=C(Nc1ccc2nc(-c3ccccn3)c(-c3ccccn3)nc2c1)N1CCOCC1 | 5.82 |
| O=C(CCNC(=O)c1ccco1)Nc1ccc(Cl)cc1 | 5.56 |
| O=C(Cn1c(=O)oc2ccccc21)Nc1n[nH]c(=S)s1 | 29.6 |
| Cc1cc(-c2nnc(CCC(=O)NC(C)c3ccccc3Cl)o2)no1 (stereo not drawn) | 0.643 |
| CS(=O)(=O)c1ccc(Cl)c(NC(=O)COC(=O)Cc2c[nH]c3ccccc23)c1 | -7.78 |
| CCCn1c(SCC(=O)Nc2cc(S(=O)(=O)N3CCOCC3)ccc2Cl)n[nH]c1=O | -1.03 |
| Cc1cc2c(cc(C(=O)OC(C(=O)NC3CCCCC3)C(C)C)n2C)o1 (stereo not drawn) | 5.89 |
| CCn1c(SCC(=O)Nc2cc(C)nn2-c2ccccc2)nnc1-c1cccs1 | -12.9 |
| COc1cccc(NC(=O)CN(C)C(=O)c2ccc(-c3ccc(Cl)cc3)o2)c1 | -10.4 |
| N=C1C(c2nc(-c3ccc(F)cc3)cs2)=C(O)CN1CCCN1CCOCC1 | -39.5 |
| COc1cc(Br)cc(C2C3=C(CCCC3=O)N(c3ccc(F)cc3)C3=C2C(=O)CCC3)c1O | -17.1 |
| Cc1cc(C(=O)CSc2nnnn2-c2ccccc2)c(C)n1CCc1ccccc1 | 9.18 |
| CC1(C)C(=O)OC(C(=O)c2ccccc2)C2(CCCCC2)C1=O (stereo not drawn) | -2.19 |
| CCN(CC)c1ccc(/C=C/c2ccc3ccc(OC)cc3[n+]2CC)cc1.[I-] | -82 |
| CCOC(=O)C1=Nc2ccccc2/C1=C\c1c(O)n(C)c(=O)n(C)c1=O | 7.8 |
| COc1cccc(N2C(=NC(=O)C3CCCO3)SC3CS(=O)(=O)CC32)c1 (stereo not drawn) | 14.9 |

| SMILES | hERG current change (%, negative = inhibition) at 10uM [%] |
| --- | --- |
| Cc1ccc(/C=N/NC(=O)c2ccco2)cc1 | 11.3 |
| CC1(C)CSC(=S)N1S(=O)(=O)c1ccccc1 | -19 |
| Cc1ccc(CS(=O)(=O)c2ncc(Cl)c(C(=O)Nc3nnc(C(C)C)s3)n2)cc1 | 9.25 |
| COc1ccc(C(=O)NCC(=O)N2CCN(c3ncccn3)CC2)cc1OC | 15 |
| O=C(O)C(=O)O.OC(COCc1ccc(Cl)cc1)CN1CC=C(c2ccccc2)CC1 (stereo not drawn) | -77.2 |
| Cc1[nH]n(-c2ccc(Cl)cc2)c(=O)c1C(=O)c1ccccc1 | 28.6 |
| C[C@H](NC(=O)c1nc[nH]c1C(=O)N[C@H](C)c1ccccc1)C(=O)OCc1ccccc1 | -1.78 |
| O=C(CCNC(=O)c1ccc([N+](=O)[O-])cc1)Nc1ccc(N2CCOCC2)cc1N1CCOCC1 | -4.63 |
| COc1ccc(S(=O)(=O)N(C)C)cc1NC(=O)CCNC(=O)c1ccccc1OC | 15.6 |
| CCC(C)NC(=O)Cc1cn(C)c2ccccc12 (stereo not drawn) | -5.23 |
| CC[C@@H](C)[C@@H](C(=O)N1CCN(C(=O)OC(C)(C)C)CC1)n1cc(CCC(=O)O)nn1 | 21.6 |
| Cc1cc(C(=O)NNC(=O)CCCCC(=O)NNC(=O)c2cc(C)[nH]n2)n[nH]1 | -10.8 |
| CCC(Cc1ccccc1)NC(=O)CN(C)S(=O)(=O)c1ccc2c(c1)c(=O)n(C)c(=O)n2C (stereo not drawn) | -23.5 |
| COc1ccc(C(=O)NCC(=O)OCC(=O)N(C)c2ccccc2)cc1 | 4.72 |
| O=c1c2ccccc2[nH]c(=S)n1CC1CCCO1 (stereo not drawn) | 10.4 |
| Cc1ccc(NC(=O)COC(=O)CN2C(=O)C3CCCCC3C2=O)cc1C (stereo not drawn) | 2.1 |
| Cc1cc(C)n(-c2ccc(C(=O)Nc3cccnc3)cc2)n1 | 1.32 |
| O=C(COC(=O)c1ccncc1)NC(=O)C1CCCCC1 | 0.14 |
| COc1ccccc1NC(=O)c1ccc(NC(=O)CSc2nncn2C)cc1 | -4.38 |
| Cc1nnc(NC(=O)C2c3ccccc3Oc3ccccc32)s1 | 5.04 |
| O=C(NCc1ccc(F)cc1)C1CC(=O)N(C2CCCCCCC2)C1 (stereo not drawn) | 29.8 |
| CCOC(=O)N1CCN(C(=O)CN(Cc2ccccc2)S(=O)(=O)c2ccc(OC)c(Cl)c2)CC1 | -13.4 |

| SMILES | hERG current change (%, negative = inhibition) at 10uM [%] |
| --- | --- |
| Fc1ccc2nc(-c3ccccc3)nc(SCc3nnc(-c4ccccc4)o3)c2c1 | -5.22 |
| CCOC(=O)C(C)Oc1cccc2c(=O)n(CC(=O)NCc3ccc4c(c3)OCO4)ccc12 (stereo not drawn) | 11.7 |
| O=C(Cn1cccc1C(=O)c1ccccc1)NCCC1=CCCCC1 | -19.5 |
| CCOc1ccc(NC(=O)CCN2CCN(c3ccccc3OC)CC2)cc1 | -33.8 |
| COC(=O)C1(C)NC(c2ccc(F)cc2)C2C(=O)N(c3ccccc3)C(=O)C21 (stereo not drawn) | 14.8 |
| Cc1ccccc1C(=O)N1CCN(c2ccc([N+](=O)[O-])c(NCc3cccnc3)c2)CC1 | -27 |
| Cc1ccc(C(=O)NCC(=O)NCCCc2ccccc2)cc1 | 12.3 |
| Cl.c1coc(CN2CCN(C(c3cccs3)c3nnnn3C3CCCC3)CC2)c1 (stereo not drawn) | -19.5 |
| COc1ccccc1N(C)S(=O)(=O)c1ccc(C(=O)NCC(C)C)cc1 | -17.6 |
| O=c1c2ccccc2nc(SCc2cccc(F)c2)n1C1CCCC1 | -5.51 |
| CCOC(=O)c1c(NC(=O)COC(=O)CCOc2ccccc2C)sc(C(=O)NC)c1C | 20.1 |
| COc1ccc(C2=C/C(=C\c3ccc(OC(C)=O)cc3)C(=O)O2)cc1 | 11.9 |
| COc1ccc(N2CCN(C(=O)COCC(=O)O)CC2)cc1 | 26.1 |
| COC(=O)c1ccc(NC(=O)CSc2nc(=O)n3cccc(C)c3n2)cc1 | -10.2 |
| Cc1cccnc1NC(=O)C(c1ccccc1)c1ccccc1 | 14.2 |
| Cc1nc(-c2ccc(S(=O)(=O)Nc3cccc(S(N)(=O)=O)c3)s2)cs1 | 4.83 |
| Cc1cccc(OCc2n[nH]c(=S)o2)c1 | 23.5 |
| O=C(Nc1cccc(O)c1)c1cc(S(=O)(=O)N2CCCC2)ccc1Cl | -4.47 |
| O=C(CN1C(=O)c2ccccc2C1=O)N1CCN(C(=O)c2ccco2)CC1 | -7.2 |
| CCNC(=O)CN1C(=O)NC2(CCCCCC2)C1=O | 14.3 |
| COc1cc(C(=O)NCC(=O)N/N=C/c2ccco2)cc(OC)c1OC | 15.4 |
| CCCCNc1oc(-c2ccc(OC)cc2)nc1S(=O)(=O)c1ccccc1 | 3 |

| SMILES | hERG current change (%, negative = inhibition) at 10uM [%] |
| --- | --- |
| Cc1cccc(/C=N/NC(=O)c2ccccc2OCc2cccc(Br)c2)n1 | -35.3 |
| Cc1cc(C(=O)CSc2nc3ccccc3o2)c(C)n1C1CC1 | 15.2 |
| COCCn1c(C)cc(C2=NNC(=Nc3ccc(OC)cc3)SC2)c1C | 1.3 |
| O=C(O)C(C(=O)O)=C1C2CC3CC(C2)CC1C3 | 21.6 |
| CCc1ccc(/C=N/NC(=O)c2cc(C3CC3)nc3ccc(Br)cc23)s1 | 3.74 |
| O=C(NC1CCCC1)C1C2C=CC3(CN(Cc4cccs4)C(=O)C13)O2 (stereo not drawn) | 8.93 |
| OCC[C@@H]1C[C@@H](O)[C@H](O)[C@]2(CCCc3ccccc3O2)O1 | 2.34 |
| O=C(/C(=C/O)N=Nc1ccccc1)c1cccs1 | 19.2 |
| COC(=O)N/N=C/c1ccc(-c2cc(Cl)cc(Cl)c2)o1 | -2.4 |
| CCOc1cc(N2CCOCC2)c(OCC)cc1NC(=O)c1[nH]c(C)c(C(C)=O)c1C | 13.4 |
| C=CCn1c(COc2ccc(CC)cc2)nnc1SCC(=O)N(C)C1CCS(=O)(=O)C1 (stereo not drawn) | -16.3 |
| Cn1c(=O)[nH]c2c(nc(-c3ccc(Cl)cc3)n2C)c1=O | 20.3 |
| COc1cc(NC(=O)n2ncc3cc(Cl)ccc32)cc(OC)c1 | 21.3 |
| COc1ccc(NC(=O)C(=O)N2N=C3CCCCC3C2(O)C(F)(F)F)cc1 (stereo not drawn) | 7.19 |
| COC(CNC(=O)c1ccc2nc(-c3cccs3)c(-c3cccs3)nc2c1)OC | 10.9 |
| CCc1nc(C)cn1S(=O)(=O)c1ccc(Br)cc1 | 15.3 |
| Cc1ccc(Cl)cc1NC(=O)C1CCCN(S(C)(=O)=O)C1 (stereo not drawn) | 6.63 |
| COc1ccc(-c2cc(C(=O)O)c3ccccc3n2)c(OC)c1 | 11.9 |
| O=C(CSc1nncn1-c1cccnc1)Nc1cccc(C(F)(F)F)c1 | -57.7 |
| COC(=O)/C(=N/Nc1ccccc1)N1CCCc2ccccc21 | -10 |
| Cn1c(=O)cc(N2CCN(C(=O)c3ccco3)CC2)[nH]c1=O | 13.1 |
